From PubChem BioAssay AID2202238 (Ras Initiative Chemistry Research Team, Frederick National …, 2025) come the findings set out here.

Molecules are shown by their SMILES. The list shows a part of the results. Further columns of the screen follow, without active or inactive calls.

This experiment has as its target GTPase KRas (Homo sapiens) (UniProt P01116). In words: Covalent labelling of cysteine mutants by fragments, read by mass spectrometry (AID 2202238). Also on record: protein at 5 µM with 500 µM competing thiol for 1.5 h. To be noted: KRAS G12D cysteine mutants, disulfide tethering, MALDI-TOF labeling, stronger effect = higher value, fragment at 500 µM.
Chain of UniProt P01116 (P01116 whole entry, looked up, the tested form may be a part): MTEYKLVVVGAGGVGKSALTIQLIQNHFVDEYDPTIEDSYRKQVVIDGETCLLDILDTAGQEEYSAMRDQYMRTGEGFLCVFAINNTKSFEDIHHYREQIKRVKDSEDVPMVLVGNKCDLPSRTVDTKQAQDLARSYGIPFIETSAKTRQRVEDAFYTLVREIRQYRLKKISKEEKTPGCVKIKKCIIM
Setting [1] is: measured here: G75C mutant labeling.
Where [2] appears, read: measured here: H94C mutant labeling.
The mark [3] stands for this setting: measured here: I36C mutant labeling.
[4] abbreviates: measured here: L120C mutant labeling.
[5] abbreviates: measured here: M67C mutant labeling.
The mark [6] stands for this setting: measured here: M72C mutant labeling.
Where [7] appears, read: measured here: N86C mutant labeling.
Setting [8] is: measured here: P121C mutant labeling.
[9] abbreviates: measured here: S122C mutant labeling.
The mark [10] stands for this setting: measured here: S136C mutant labeling.
The mark [11] stands for this setting: measured here: G60C mutant labeling.
Where [12] appears, read: measured here: N26C mutant labeling.

Take `Cc1csc(CC2CCCN2C(=O)CCS)n1` (stereo not drawn): the percent labeling was 16.1% under setting [1]; 41.4% under setting [2]; 37.1% under setting [3]; 33.6% under setting [4]; 44.7% under setting [5]; 29.7% under setting [6]. The percent labeling is, setting by setting: under setting [7], 28.9%; under setting [8], 30.8%; under setting [9], 34.3%; under setting [10], 66%.

With `O=C(CCS)NCCC1(O)C(=O)Nc2ccccc21` (stereo not drawn), the percent labeling amounted to 11% under setting [1]; 35.8% under setting [2]; 42.1% under setting [3]; 41.2% under setting [4]; 44.1% under setting [5]; 19.4% under setting [6]. Also, the percent labeling runs as follows: under setting [7], 26.1%; under setting [8], 33.7%; under setting [9], 37.6%; under setting [10], 59.9%.

In the case of `O=C(CCS)N1CCC(COc2ccc(C(F)(F)F)cn2)CC1`, the percent labeling is 13.8% under setting [1]; 18.8% under setting [2]; 14.3% under setting [3]; 15.6% under setting [4]; 18.6% under setting [5]; 27.3% under setting [6]. Also, the percent labeling runs as follows: under setting [7], 15.3%; under setting [8], 15.6%; under setting [9], 11.3%; under setting [10], 29.5%.

`O=C(CCS)NCC(=O)N1CCOc2ccccc21`: the percent labeling under setting [1] was found to be 11.8%; the percent labeling under setting [2] came to 33.9%; the percent labeling under setting [3] came out at 29.8%; the percent labeling under setting [4] is 49.2%; the percent labeling under setting [5] came to 36.1%; the percent labeling under setting [6] worked out at 33.3%. Besides, the percent labeling by setting is: under setting [7], 20.9%; under setting [8], 38%; under setting [9], 40.2%; under setting [10], 61.4%.

Regarding `O=C(CCS)NC1CCN(c2ccc(Cl)c(Cl)c2)C1=O` (stereo not drawn), the percent labeling stood at 4.8% under setting [1]; 13.6% under setting [2]; 15% under setting [3]; 14% under setting [4]; 25.4% under setting [5]; 22.4% under setting [6]. Besides, the percent labeling by setting is: under setting [7], 14.9%; under setting [8], 10.8%; under setting [9], 7.4%; under setting [10], 23.4%.

Take `O=C(CCS)Nc1nc2ccc3scnc3c2s1`: the percent labeling is, setting by setting: under setting [1], 4.8%; under setting [2], 5.5%; under setting [3], 11.8%; under setting [4], 11.2%; under setting [5], 11.6%; under setting [6], 21.9%. For the same compound, the percent labeling under setting [7] turned out to be 3.4%, the percent labeling under setting [8] came to 7.2%, the percent labeling under setting [9] was 6.5% and the percent labeling under setting [10] came to 9.9%.

For `CC1Oc2c(cccc2C(=O)NCCS)NC1=O` (stereo not drawn), the percent labeling amounted to 33% under setting [11]; 26% under setting [1]; 49% under setting [2]; 19.2% under setting [3]; 33.6% under setting [4]; 36.2% under setting [5]. Moreover, the percent labeling by setting is: under setting [6], 65.3%; under setting [12], 41.6%; under setting [7], 22.9%; under setting [8], 21.6%; under setting [9], 22.4%; under setting [10], 53.1%.

For `O=C(NCCS)C1COc2ccc(F)cc2C1` (stereo not drawn), the percent labeling is, setting by setting: under setting [11], 31.8%; under setting [1], 11.2%; under setting [2], 15.4%; under setting [3], 10.4%; under setting [4], 20.7%; under setting [5], 13.4%. Also, the percent labeling runs as follows: under setting [6], 25.3%; under setting [12], 27.1%; under setting [7], 13.1%; under setting [8], 15.7%; under setting [9], 11.9%; under setting [10], 21.1%.

Regarding `O=C(NCCS)c1nnn(-c2cccc(Br)c2)c1C(F)(F)F`, the percent labeling is, setting by setting: under setting [11], 16.7%; under setting [1], 16.8%; under setting [2], 6.8%; under setting [3], 4%; under setting [4], 7.3%; under setting [5], 5.6%. Besides, the percent labeling is 50.3% under setting [6]; 18.2% under setting [12]; 5.1% under setting [7]; 6.8% under setting [8]; 4.1% under setting [9]; 5.9% under setting [10].

On to `COc1cccc(-c2nc(C(=O)NCCS)c(C)[nH]2)c1`, for which the percent labeling is 38.6% under setting [11]; 21.4% under setting [1]; 30.5% under setting [2]; 7.5% under setting [3]; 44.8% under setting [4]; 14.4% under setting [5]. The percent labeling runs as follows: under setting [6], 32.5%; under setting [12], 43.2%; under setting [7], 15.1%; under setting [8], 34%; under setting [9], 11.8%; under setting [10], 25.9%.

As for `O=C(Cc1cc2[nH]cnc2cc1Br)NCCS`, the percent labeling runs as follows: under setting [11], 63.9%; under setting [1], 36.1%; under setting [2], 40.7%; under setting [3], 38%; under setting [4], 55.3%; under setting [5], 43.5%. For the same compound, the percent labeling under setting [6] was 62.7%; the percent labeling under setting [12] turned out to be 48.2%; the percent labeling under setting [7] is 47.1%; the percent labeling under setting [8] was determined as 36.3%; the percent labeling under setting [9] was 29.2%; the percent labeling under setting [10] turned out to be 48.7%.

As to `O=C(NCCS)c1coc(C#Cc2ccccc2)c1`, the percent labeling came out at 17.4% under setting [11]; 6.6% under setting [1]; 12% under setting [2]; 8.4% under setting [3]; 15.7% under setting [4]; 9.7% under setting [5]. Moreover, the percent labeling is, setting by setting: under setting [6], 30.4%; under setting [12], 8.8%; under setting [7], 9.3%; under setting [8], 11.4%; under setting [9], 9.3%; under setting [10], 12%.

Consider `Cc1c(C(=O)NCCS)nnn1-c1ccc2c(c1)OCCO2`, for which the percent labeling is, setting by setting: under setting [11], 28.2%; under setting [1], 16.4%; under setting [2], 20%; under setting [3], 12.4%; under setting [4], 16.7%; under setting [5], 13.4%. For the same compound, the percent labeling was 46.8% under setting [6]; 30.6% under setting [12]; 12.7% under setting [7]; 18.2% under setting [8]; 12.3% under setting [9]; 16.3% under setting [10].

As for `Cc1nc(C(=O)NCCS)nn1-c1ccc(Cl)cc1`, the percent labeling runs as follows: under setting [11], 17.2%; under setting [1], 11.3%; under setting [2], 14.6%; under setting [3], 10.5%; under setting [4], 22.1%; under setting [5], 11.9%. In addition, the percent labeling runs as follows: under setting [6], 20.2%; under setting [12], 30%; under setting [7], 15.3%; under setting [8], 14.1%; under setting [9], 10%; under setting [10], 15.7%.

For the compound `Cc1ccc(N2CCCC2)cc1NC(=O)CCS`, the percent labeling reads like this: under setting [1], 0%; under setting [2], 6%; under setting [3], 7.8%; under setting [4], 3.6%; under setting [5], 1.8%; under setting [6], 3.6%. The percent labeling runs as follows: under setting [7], 0%; under setting [8], 2.2%; under setting [9], 7.6%; under setting [10], 10%.

For the compound `Cc1cc(C)nc(-n2[nH]c(C(=O)NCCS)c(CCO)c2=O)n1`, the percent labeling was 9% under setting [11]; 0% under setting [1]; 8% under setting [2]; 6.8% under setting [3]; 23.3% under setting [4]; 9% under setting [5]. Also, the percent labeling was found to be 0% under setting [6]; 17.3% under setting [12]; 4.5% under setting [7]; 11.8% under setting [8]; 16.3% under setting [9]; 18.9% under setting [10].

`Cn1c(=O)n(C)c2cc(C(=O)NCCS)c(Br)cc21` had a percent labeling under setting [11] of 44.8%; a percent labeling under setting [1] of 17.5%; a percent labeling under setting [2] of 28.4%; a percent labeling under setting [3] of 23.9%; a percent labeling under setting [4] of 23.4%; a percent labeling under setting [5] of 28.1%. For the same compound, the percent labeling stood at 53.3% under setting [6]; 57.8% under setting [12]; 21.6% under setting [7]; 18.4% under setting [8]; 15.2% under setting [9]; 44.1% under setting [10].

As to `CN(C)C(C(=O)NCCS)c1cc(Br)cs1` (stereo not drawn), the percent labeling by setting is: under setting [11], 57.9%; under setting [1], 29.6%; under setting [2], 44.1%; under setting [3], 30.1%; under setting [4], 50.5%; under setting [5], 44.6%. Moreover, the percent labeling was found to be 29.3% under setting [6]; 45.5% under setting [12]; 26.8% under setting [7]; 28.9% under setting [8]; 26% under setting [9]; 53.3% under setting [10].

For `Cc1nn(C2CCS(=O)(=O)C2)c(C)c1NC(=O)CCS` (stereo not drawn), the percent labeling by setting is: under setting [1], 8.7%; under setting [2], 39.1%; under setting [3], 39.3%; under setting [4], 31.7%; under setting [5], 42.9%; under setting [6], 16.8%. The percent labeling under setting [7] amounted to 21.5%, the percent labeling under setting [8] turned out to be 34.5%, the percent labeling under setting [9] turned out to be 31% and the percent labeling under setting [10] was 49.9%.

Take `O=C(NCCS)c1cccc(Oc2ccc(Cl)cc2)c1`: the percent labeling reads like this: under setting [11], 51.5%; under setting [1], 12.5%; under setting [2], 21.3%; under setting [3], 11%; under setting [4], 23.6%; under setting [5], 12.9%. Besides, the percent labeling by setting is: under setting [6], 36.1%; under setting [12], 30.2%; under setting [7], 13.5%; under setting [8], 12.8%; under setting [9], 7.4%; under setting [10], 13.9%.

Turning to `CC(C)C1N(C(=O)CCS)CC12CCS(=O)(=O)CC2` (stereo not drawn), the percent labeling is, setting by setting: under setting [1], 13.5%; under setting [2], 39.5%; under setting [3], 41.3%; under setting [4], 24%; under setting [5], 43.4%; under setting [6], 18.2%. Besides, the percent labeling came to 25.7% under setting [7], 36% under setting [8], 35.9% under setting [9] and 49.6% under setting [10].

With `Cc1c(C(=O)NCCS)sc2ncn(C)c(=O)c12`, the percent labeling by setting is: under setting [11], 45.8%; under setting [1], 32.8%; under setting [2], 32%; under setting [3], 26.8%; under setting [4], 37.2%; under setting [5], 41.7%. This compound also returned a percent labeling under setting [6] of 73.7%; a percent labeling under setting [12] of 52.4%; a percent labeling under setting [7] of 36.2%; a percent labeling under setting [8] of 27.7%; a percent labeling under setting [9] of 29.9%; a percent labeling under setting [10] of 53.6%.

Consider `O=C(NCCS)c1c(C(F)(F)F)nc2ccccn12`, for which the percent labeling was determined as 47.8% under setting [11]; 28.7% under setting [1]; 39.2% under setting [2]; 33.1% under setting [3]; 38.6% under setting [4]; 36% under setting [5]. Also, the percent labeling under setting [6] came to 50%; the percent labeling under setting [12] was found to be 46%; the percent labeling under setting [7] amounted to 38.2%; the percent labeling under setting [8] is 35.1%; the percent labeling under setting [9] was 35.9%; the percent labeling under setting [10] stood at 53.1%.
